Experimental data published in PubChem BioAssay AID1347120 (National Center for Advancing Translational Sciences (NCATS), 2019).
Where “and” joins values, the source holds several entries; their conditions need not be identical. Identical values can stand only once. Hit rate of the full screen: of about 390,000 compounds, about 930 (0.24%) were called active. The inconclusive results got no clear call from the source; some entries with a clear call stand among them for comparison. Calls come from the whole dose curve; as a rule, active = well fitted activation curve with a large enough effect; inconclusive = small, poorly fitted or top-dose-only effect; inactive = no such curve, though single readings can be large or run the other way. A potency beside an inconclusive call is a rough fit, not a confirmed value.

assay: qHTS for Suppressors of FUS Proteinopathy: Primary screen using FUS-linked yeast assay; note: nearly all actives have a fitted effect of over 55% in size;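 for growth rescue (activation): plate controls were DMSO vehicle for no effect and reference control for full effect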; details: S. cerevisiae FUS-expressing, OD600, 24 h; Potency: growth rescue; growth rescue (activation): at 76.6 µM (top of the series)
Procedure, shortened: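 Yeast FUS proteinopathy model; galactose-induced FUS (2%), starting OD 0.005. Cpds in dilution series, 24hr, 30C, 99% humidity. Abs 600 nm growth. Pos ctrl CP55940 (top 92uM final); neg ctrl DMSO.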
Potency is the fitted concentration of half-maximal effect; tags give direction and shape of the fitted curve.

Row | SMILES | growth rescue (activation) | Potency
1 | C#CCNC(=O)C[C@H]1C[C@@]2(C(=O)OC)C(=C[C@H](C(C)C)O[C@@H]2C2CC2)N(CCC2=CCCCC2)C1=O | inactive: 26.8% | –
2 | O=c1cc(-c2ccccc2Cl)oc2c([N+](=O)[O-])c(O)cc(O)c12 | – | inconclusive: 28.2 µM [activator, single point]
3 | O=C(c1ccoc1)N1CCN(c2cc(-c3ccco3)nc3cc(-c4ccccc4)nn23)CC1 | – | inconclusive: 35.5 µM [activator, single point]
4 | COc1ccc(C2=NN(CC(=O)NCCc3ccc(OC)c(OC)c3)C(=O)CC2)cc1 | inactive: 12.2% | –
5 | CCCCCCn1c(=O)n2n(c1=O)[C@@H]1CN(S(=O)(=O)c3ccc(C)cc3)C[C@]1(O)[C@@H](OC(=O)Nc1cccs1)C2 | – | inconclusive: 35.5 µM [activator, single point]
6 | Cc1nn(-c2ccccc2)c2c1C1(C(=O)N3c4c(cccc41)C(C)CC3(C)C)C(C#N)=C(N)O2 (stereo not drawn) | – | inconclusive: 31.6 µM [activator, partial curve]
7 | Cc1ccc(-c2nc3sc(CCNC(=O)c4ccc(Br)o4)c(C)n3n2)cc1 | – | inconclusive: 28.2 µM [activator, single point]
8 | Cc1ccc(C(=O)C2=C(O)C(=O)N(Cc3cccnc3)C2c2ccc(Br)cc2)o1 (stereo not drawn) | – | inconclusive: 31.6 µM [activator, partial curve, poor fit]
9 | O=C(Nc1cccc([N+](=O)[O-])c1)c1ccc([N+](=O)[O-])o1 | inactive: 19.7% | –
10 | O=C(NCCc1csc(-c2ccccc2)n1)c1c(F)cccc1F | inactive: -15.6% | –
11 | O=C(c1ccc(N2CCN(CCO)CC2)nc1)N1CCOCC1 | inactive: -11.5% | –
12 | CCOc1ccc(NC(=O)CSc2nc3c(oc4ccccc43)c(=O)n2-c2ccccc2C)cc1 | – | inconclusive: 35.5 µM [activator, single point]
13 | COc1ccc(Cc2nnc(NS(=O)(=O)c3ccc(Cl)cc3)s2)cc1OC | – | inconclusive: 3.98 µM [activator, partial curve, poor fit]
14 | CCCCN(CCCC)C(=O)c1cc2c(=O)n3cccc(C)c3nc2s1 | – | inconclusive: 28.2 µM [activator, single point]
15 | CCOc1ccc(Br)cc1S(=O)(=O)Nc1cccc(S(=O)(=O)N(C)C)c1 | – | inconclusive: 7.94 µM [activator, partial curve, poor fit]
16 | COC(=O)[C@]12C[C@H](CC(=O)N3CCN(C(=O)c4ccco4)CC3)C(=O)N(Cc3ccco3)C1=C[C@H](C(C)(C)C)O[C@@H]2C | – | inconclusive: 6.31 µM [activator, partial curve, poor fit]
17 | NNC(=O)[C@H](Cc1ccccc1)NC(=O)Nc1ccc2c(c1)OCCO2 | – | inconclusive: 25.1 µM [activator, partial curve, poor fit]
18 | C[C@H](NC(=O)[C@@H]1CCCN1C(=O)OC(C)(C)C)c1ccccc1 | inactive: -8.58% | –
19 | S=C1NC(c2ccccc2)=CC(c2ccccc2)N1 (stereo not drawn) | – | inconclusive: 39.8 µM [activator, partial curve, poor fit]

Row | SMILES | growth rescue (activation) | Potency
20 | CCOc1ccccc1C1C(C(=O)N2CCCCC2)=C(C)Nc2nc3ccccc3n21 (stereo not drawn) | inactive: -19.2% | –
21 | COc1cccc(Cn2cnc(-c3ccccc3OC)c2-c2ccco2)c1 | – | inconclusive: 12.6 µM [activator, partial curve, poor fit]
22 | COc1ccc(N(C)C(=O)CCn2cnc3onc(-c4ccc(F)cc4)c3c2=O)c(OC)c1 | – | inconclusive: 44.7 µM [activator, single point]
23 | COc1cccc(NC(=O)CN2C(=O)c3cccnc3Oc3ccc(Cl)cc32)c1 | – | inconclusive: 35.5 µM [activator, single point] and inconclusive: 25.1 µM [activator, partial curve]
24 | Cc1ccc2nc(N3C(=O)C(O)=C(C(=O)c4ccco4)C3c3cccs3)sc2c1 (stereo not drawn) | – | inconclusive: 12.6 µM [activator, single point]
25 | CCc1ccc(NC(=O)/C(C#N)=C/c2ccncc2)cc1 | – | inconclusive: 6.31 µM [activator, single point]
26 | COc1cccc2c(=O)c(C(=O)NCc3cccs3)c[nH]c12 | inconclusive: 91.4% [activator] | –
27 | C/C(C=NNC(=O)c1cc(-c2ccc(C)c(C)c2)n[nH]1)=C/c1ccco1 | inactive: 38.4% | –
28 | O=C(O)c1ccc(COc2ccc([N+](=O)[O-])cc2Cl)cc1 | – | inconclusive: 15.8 µM [activator, partial curve]
29 | COc1cc(NC(=O)C2=C(N3CCOCC3)/C(=C\c3ccc(Br)cc3)CC2)cc(OC)c1OC | – | inconclusive: 3.55 µM [activator, full curve]
30 | Cc1cccc(CCNC(=O)c2sc3nc4n(c(=O)c3c2C)CCCC4)c1 | – | inconclusive: 28.2 µM [activator, single point]
31 | COC(=O)[C@@]1(Cc2ccc(F)cc2)[C@H]2c3cc(C(=O)N4CCCC4)n(Cc4ccccc4)c3C[C@H]2CN1C(=O)c1ccccc1 | – | inconclusive: 35.5 µM [activator, single point]
32 | COc1ccccc1N1CCN(CCN2C(=O)CC(=C3c4ccccc4-c4ccccc43)C2=O)CC1 | – | active: 15.8 µM
33 | O=C(OCC(=O)c1ccc(S(=O)(=O)N2CCCC2)cc1)C1=COCCO1 | – | inconclusive: 35.5 µM [activator, single point]
34 | Cc1nc2sc(C(N)=O)c(N)c2c2c1CCCC2 | – | inconclusive: 11.2 µM [activator, partial curve, poor fit]
35 | Cc1ccc2onc(CNC(=O)N3CCN(c4cccc(C)c4C)CC3)c2c1 | – | inconclusive: 50.1 µM [activator, single point]
36 | Cc1ccc(C2(c3ccccc3)NC(=O)N(CC(=O)NC3CCCCC3)C2=O)cc1C (stereo not drawn) | – | inconclusive: 50.1 µM [activator, single point]
37 | Cc1ccc(C(=O)NCC2CCCN2S(=O)(=O)c2ccc(C)cc2)cc1 (stereo not drawn) | – | inconclusive: 4.47 µM [activator, full curve]
38 | Cc1cc(C2=NNC(=NC3CCCCC3)SC2)c(C)n1-c1c(C)n(C)n(-c2ccccc2)c1=O | – | inconclusive: 31.6 µM [activator, single point]
